# Results published in paper PMC7819943, “Rice protein-binding microarrays: a tool to detect cis-acting elements near promoter regions in rice”.
# The list shows a part of the results.
# Molecular target: T1, OsWOX13 (Oryza sativa, UniProt Q5QMM3 1-267)
# T1 sequence: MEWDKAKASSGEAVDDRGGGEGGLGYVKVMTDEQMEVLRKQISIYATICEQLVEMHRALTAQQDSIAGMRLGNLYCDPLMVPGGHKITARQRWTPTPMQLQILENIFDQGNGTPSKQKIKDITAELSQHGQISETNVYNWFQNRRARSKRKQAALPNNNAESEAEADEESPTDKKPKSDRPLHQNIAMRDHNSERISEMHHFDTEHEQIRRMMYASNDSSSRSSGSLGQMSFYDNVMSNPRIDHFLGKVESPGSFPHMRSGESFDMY
# Experiment: protein-binding microarray (RPBM); PBS, 2% BSA, 51.3 ng/ul salmon testes DNA, 50 uM zinc acetate, 200 nM TF, 25 C, 1 h; high values mean tight binding
# Conditions: protein: recombinant; tags: N-terminal polyhistidine and DsRed monomer fusion (pET32a); label: CyDye5-dUTP incorporated in the synthesized complementary strand; 3' TTTTT single-stranded linker to array surface; dsDNA, one strand shown
# Outline: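 In PBS with 2% BSA, salmon testes DNA and 50 µM zinc acetate, 200 nM protein was incubated on a custom Agilent array at 25 °C for 1 h and then washed off. The array had been made double-stranded by primer extension with Cy5-dUTP and blocked with 2% BSA. The proteins were transcription factors fused N-terminally to polyhistidine and DsRed, expressed in E. coli BL21-CodonPlus and purified on Ni–NTA. The binding signal is per-feature fluorescence intensity (arbitrary units) from an Axon 4000B scanner.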
row,Sequence,binding signal
1,TAGTAAATTCCCCAAATTTATCTATCACTGTAAGATGGTACGGAGTCACCTAGTGCAG,10400 fluorescence intensity (a.u.)
2,TTCACATAATTTTGAATCGTTGGATCTATTACAAGATTTGCGGAGTCACCTAGTGCAG,3920 fluorescence intensity (a.u.)
3,AATTAATTGTGCGTGCCCGCTCGATCTGATGCTACCGAGCCGGAGTCACCTAGTGCAG,19400 fluorescence intensity (a.u.)
4,GATTTAGATTTTATATTTATTATGTTGATTAAACCAAAATCGGAGTCACCTAGTGCAG,4330 fluorescence intensity (a.u.)
5,AAGAGGAATTAATGCAGGATTGCCTGTCCTGTCATCCTAGCGGAGTCACCTAGTGCAG,3940 fluorescence intensity (a.u.)
6,AATTAATCCATAATTAGCACATGTTTACTATAGCATCACACGGAGTCACCTAGTGCAG,12800 fluorescence intensity (a.u.)
7,ATGATATAATTTCCACAAGAACATTTATTCCCTCCCTACTCGGAGTCACCTAGTGCAG,4790 fluorescence intensity (a.u.)
8,ATTAATTAGCATGGCAAAGGAACTAATACTGGTCGGTTAGCGGAGTCACCTAGTGCAG,25800 fluorescence intensity (a.u.)
9,TTCCTACGTTTTATCAATCATGCGATTCAAAGGGGCCCTCCGGAGTCACCTAGTGCAG,8010 fluorescence intensity (a.u.)
10,ATTTGCTGTGATTATTGTGATATCCACTTTATATAACTGCCGGAGTCACCTAGTGCAG,9290 fluorescence intensity (a.u.)
11,GGTCTTGTTAATCGCTTAATTACTCACATAGTTAAGAAAACGGAGTCACCTAGTGCAG,6860 fluorescence intensity (a.u.)
12,GAAATGAAATTACTACTGTAAATAATCTTGTTAAGTAGGACGGAGTCACCTAGTGCAG,3750 fluorescence intensity (a.u.)
13,AAACTGTTCAAATTTCAATTTGTTATATATCGTAACGTGCCGGAGTCACCTAGTGCAG,6160 fluorescence intensity (a.u.)
14,CAATAGTAACAAGGGAGATGTGATTGACGACGCAGGATTCCGGAGTCACCTAGTGCAG,13800 fluorescence intensity (a.u.)
15,CAAAGAGTCAAATTATCCAAATTTGTGCATTAAACAGTGCCGGAGTCACCTAGTGCAG,5850 fluorescence intensity (a.u.)
16,ATATATCAATCAGGTAAGGCGCAACATGATGTCTCGTTCACGGAGTCACCTAGTGCAG,12300 fluorescence intensity (a.u.)
17,ATGATTAGAAGAATACACTGCGTTGAATGAACGGCAATAACGGAGTCACCTAGTGCAG,13500 fluorescence intensity (a.u.)
18,GTACTAACTGGTTTCGTTCAATTTATTTTACATCTTATCACGGAGTCACCTAGTGCAG,8080 fluorescence intensity (a.u.)
19,ACCTTCTAGTCAAATTAAAATTAAGGTGTTCACAGCCTACCGGAGTCACCTAGTGCAG,5680 fluorescence intensity (a.u.)
20,TACACATTTTCTCTCTGATTTACGAGTCTAATGACTGATTCGGAGTCACCTAGTGCAG,3420 fluorescence intensity (a.u.)
21,TCACCCGGATATTAATTGAAACAAAGTTCAGTACAGAGTACGGAGTCACCTAGTGCAG,11300 fluorescence intensity (a.u.)

row,Sequence,binding signal
1,CACCTCAAATTTGGAAACAACTGTCACCGCCATCGACGATCGGAGTCACCTAGTGCAG,3220 fluorescence intensity (a.u.)
2,CGATTAGGTCTAACTGATTAACTCTTAATTTTGCGTCTCACGGAGTCACCTAGTGCAG,8580 fluorescence intensity (a.u.)
3,GAAATCATTTCCATTTCCAATTTAGCCAAACATTGCCTCACGGAGTCACCTAGTGCAG,4940 fluorescence intensity (a.u.)
4,AAATTTTGACTAATAATTGAACAAAAGTATACTTCATATGCGGAGTCACCTAGTGCAG,21200 fluorescence intensity (a.u.)
5,ATCCACAATTAGCACATTGTTACTATAGCATCACATAGGCCGGAGTCACCTAGTGCAG,3500 fluorescence intensity (a.u.)
6,TTACTCAGATCAGATTAATTTGAACCAAACTACCATTCGACGGAGTCACCTAGTGCAG,3960 fluorescence intensity (a.u.)
7,CCAAAGACCAAGAAATAATTATTATCATCTTGTAGTTTGGCGGAGTCACCTAGTGCAG,3240 fluorescence intensity (a.u.)
8,CATTTTGTCAATTCAATAATTAACATCACCCAAAACTTAACGGAGTCACCTAGTGCAG,15000 fluorescence intensity (a.u.)
9,AAGACATGATTATTTTGTATTATGACGTTAAATAAAGCCCCGGAGTCACCTAGTGCAG,28200 fluorescence intensity (a.u.)
10,ACTGGAACAGATGAAATTGGTAGAAATTGGAATCGGTCATCGGAGTCACCTAGTGCAG,9490 fluorescence intensity (a.u.)
11,TAGACTGATTATAATTATTTACACGTACCATAATGGTTTACGGAGTCACCTAGTGCAG,36400 fluorescence intensity (a.u.)
12,TGACAAAATATTGACAGGATTTCGTTACCAAAATTTGGCACGGAGTCACCTAGTGCAG,6100 fluorescence intensity (a.u.)
13,AACGTAAATTAATAACAAAACAAATTACAGATTTCGCCTGCGGAGTCACCTAGTGCAG,31100 fluorescence intensity (a.u.)
14,GACCGAGATGAGATTGATAAACTACCCAAGTTAGCAAAGTCGGAGTCACCTAGTGCAG,19100 fluorescence intensity (a.u.)
15,TATTAATTAATTAACCTTAATTAATAAACAGGCAAAAGAACGGAGTCACCTAGTGCAG,40700 fluorescence intensity (a.u.)
16,GTAACAGAATCTAATGACATCAATTATAATCACGTCAGGTCGGAGTCACCTAGTGCAG,17300 fluorescence intensity (a.u.)
17,ATACAGTGAATAGTGATATATGATTGGAGGGACAAGCGGACGGAGTCACCTAGTGCAG,9480 fluorescence intensity (a.u.)
18,GTACTAGCTTAATTAATGCAACGGAAAGATTAAACTTTTGCGGAGTCACCTAGTGCAG,5740 fluorescence intensity (a.u.)
19,GTTAGATACCGTTAATTTTGTCAAAATGACCAGATTGCCCCGGAGTCACCTAGTGCAG,5830 fluorescence intensity (a.u.)
20,CATATTATCAAATCATGGAGCAATTAGGCTTAAAAGATTCCGGAGTCACCTAGTGCAG,7060 fluorescence intensity (a.u.)
21,CTGTATTATCTGATTAATTGTTGTCAATTCATCAGACAAACGGAGTCACCTAGTGCAG,25000 fluorescence intensity (a.u.)
